The supplement of paper PMC12217912
Some of the results follow. The full chains were built here from the parent and the listed change. Values near 0.05 are background.

B1: TEV protease; numbered along this chain (parent)
chain: MGESLFKGPRDYNPISSSICHLTNESDGHTTSLYGIGFGPFIITNKHLFRRNNGTLVVQSLHGVFKVKDTTTLQQHLVDGRDMIIIRMPKDFPPFPQKLKFREPQREERICLVTTNFQTKSMSSMVSDTSCTFPSGDGIFWKHWIQTKDGQCGSPLVSTRDGFIVGIHSASNFTNTNNYFTSVPKNFMELLTNQEAQQWVSGWRLNADSVLWGGHKVFMVKPEEPFQPVKEATQL

Variants of: B1
Assay: raw area under fraction-flipped curve 0-4 h after induction (AUC4h, not background-subtracted), DNA-recorder readout of cleavage of the substrate (dimensionless); higher = more cleavage of the substrate by the protease variant
Conditions: temperature: 34 °C; time window: 0-4 h after rhamnose induction
Procedure: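 In vivo DNA recorder in E. coli TOP10(DE3) ΔrhaA at 34 °C. Each TEVp single-site mutant (parent TEVp 0) is paired with a single-site variant of the 7-mer TEVs (canonical ENLYFQ|S). The substrate sits between flexible linkers in a Bxb1-sfGFP-TEVs-SsrA fusion, so cleavage stabilises Bxb1 and speeds flipping of a recombination array, read by NGS. The value is the raw area under the fraction-flipped curve over 0-4 h after rhamnose induction (AUC4h), with ≥20 reads per time point. It is not background-subtracted; inactive controls average about 0.047.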
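Further: Bxb1 expression induced with 0.2% (w/v) L-rhamnose at OD600 near 0.5, cultures sampled hourly, flipped fraction per protease–substrate barcode pair counted by paired-end Illumina sequencing.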

Variant | area with substrate ENLYFCS | area with substrate ENLYFDS | area with substrate ENLYFES | area with substrate ENLYFFS | area with substrate ENLYFHS | area with substrate ENLYFIS | area with substrate ENLYFKS | area with substrate ENLYFMS | area with substrate ENLYFPS | area with substrate ENLYFRS | area with substrate ENLYFWS | area with substrate ENLYFYS | area with substrate ENLYFGS | area with substrate ENLYFNS | area with substrate ENLYFTS | area with substrate ENLYFVS | area with substrate ENLYFSS | area with substrate ENLYFLS
V229H | 0.0666 | 0.0722 | 0.0726 | 0.0663 | 0.0875 | 0.0677 | 0.0385 | 0.0755 | 0.0747 | 0.0523 | 0.0617 | 0.0398 | – | – | – | – | – | –
G39K | 0.0421 | 0.0354 | 0.046 | 0.0506 | 0.0354 | 0.0415 | – | 0.0537 | 0.049 | 0.0485 | 0.0366 | 0.0341 | 0.0299 | 0.0511 | 0.0338 | 0.0342 | – | –
R160A | 0.0724 | 0.0262 | 0.0741 | 0.0674 | 0.0537 | 0.0561 | 0.0569 | 0.0661 | 0.0457 | – | 0.0582 | – | 0.064 | 0.0561 | – | 0.0732 | 0.0658 | –
R106I | 0.0736 | – | 0.0633 | 0.0715 | – | 0.0695 | – | 0.0678 | 0.0604 | – | 0.0685 | – | – | – | 0.0601 | – | 0.0647 | –
P155E | 0.0469 | – | 0.0449 | – | 0.0611 | 0.0535 | 0.0665 | – | 0.0454 | 0.0524 | 0.0488 | – | 0.054 | 0.073 | 0.0368 | – | – | –
T233D | 0.0573 | 0.068 | 0.0635 | – | – | 0.0432 | 0.072 | 0.0646 | – | 0.0624 | 0.0322 | – | – | 0.0605 | – | – | – | 0.0632
I85F | 0.069 | 0.052 | 0.0635 | 0.0489 | 0.0546 | 0.0568 | – | 0.0603 | – | 0.0583 | – | 0.0535 | – | – | – | – | – | –
M219Q | 0.06 | 0.0864 | 0.0664 | 0.0614 | – | 0.0504 | 0.0619 | 0.0604 | 0.0645 | 0.0562 | 0.0532 | 0.0498 | – | 0.0515 | 0.0686 | 0.049 | 0.0565 | 0.0546
K120L | 0.0455 | – | – | – | 0.0426 | – | – | 0.0562 | – | 0.0599 | – | – | – | – | 0.066 | – | – | –
G213Y | 0.0648 | 0.0655 | 0.0633 | – | – | 0.0533 | – | 0.0567 | 0.043 | 0.0605 | 0.0572 | – | 0.0706 | 0.0617 | 0.0645 | 0.0128 | 0.0584 | –
H62N | 0.0471 | – | 0.0648 | 0.0761 | – | 0.0615 | – | 0.0324 | – | 0.059 | 0.0675 | 0.044 | – | – | 0.0497 | – | 0.065 | 0.0587
R81I | 0.0544 | – | 0.0555 | 0.0711 | – | 0.0408 | 0.0669 | 0.0464 | 0.0666 | 0.0603 | – | 0.075 | – | 0.062 | 0.056 | – | – | –
C20A | 0.0521 | 0.0474 | 0.0594 | 0.059 | – | 0.0538 | 0.0669 | – | 0.0594 | 0.0635 | 0.0583 | 0.0574 | 0.066 | 0.0664 | 0.0546 | 0.0735 | – | –
N52S | 0.0558 | – | 0.0784 | 0.0537 | 0.0571 | 0.0316 | – | 0.0638 | – | 0.0582 | 0.0585 | 0.0598 | 0.0552 | 0.056 | 0.0589 | 0.0033 | 0.0627 | –
A232P | 0.0601 | 0.0548 | 0.0776 | – | 0.0598 | 0.0542 | 0.0687 | 0.0745 | – | – | – | 0.0589 | – | 0.0695 | – | – | 0.0709 | –
